Assay results from the RNAGym collection of RNA variant scans (doi:10.1093/nar/gkz1192).
The source gives no read counts; variants with many changes may rest on few reads.

B1: CPEB3 Ribozyme (parent)
chain: UAACAGGGGGCCACAGCAGAAGCGUUCACGUCGCAGCCCCUGUCAGAUUCUGGUGAAUCUGCGAAUUCUGCUGUAUAUCUC

Variants of: B1
Test: self-cleavage, relative activity (ratio to wild type); higher = more cleavage; in vitro, sequencing
How it was run: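 Libraries of CPEB3 self-cleaving ribozyme mutants came from rounds of error-prone PCR and carried barcodes, which DNA sequencing matched to variants. In vitro transcription used T7 RNA polymerase at 37°C for 5 hours, with a further 15 min in DNase I before EDTA stopped the reaction; the ribozymes cleaved during both steps. The RNA was reverse transcribed with template switching and sequenced on Illumina. Relative activity is the cleaved/total read fraction of a variant divided by that of the unmutated ribozyme, averaged over three batches with at least 5 reads.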
Work on C50U U69A U72C yielded a self-cleavage of 0.32. Work on U49C U69A G70A yielded a self-cleavage of 0.17. U49C A56U U80A gave a self-cleavage of 0.85. For U49C U67C U80C, the self-cleavage was 0.13. In the case of A45U G46C A47G C68A U72C, the self-cleavage is reported as 0.11. In the case of A56C U60A U69C, the self-cleavage is reported as 0.17. In the case of A47U U54C U60C U74C, the self-cleavage is reported as 0.46. Work on U48A U51C C62U yielded a self-cleavage of 0.18. Work on U49C G52U G70C yielded a self-cleavage of 0.17. In the case of U51C U69C G70U, the self-cleavage is reported as 0.54. G46C A47G U58C gave a self-cleavage of 0.37. With U51G U58C U78C the self-cleavage was 0.25. In the case of U51C U67C U80C, the self-cleavage is reported as 0.52. Work on U48C U67C U72C U76G yielded a self-cleavage of 0.08. Variant A45U G61A C71A has a self-cleavage of 0.12. In the case of G46A A47G U48C U60A U80C, the self-cleavage is reported as 0.12. U51A U69A U80C gave a self-cleavage of 0.62. Variant U49C A64G U72A U80C has a self-cleavage of 0.19. A47G A57G U69A U74C gave a self-cleavage of 0.31. Variant U48A U49C U80A has a self-cleavage of 0.53. For U51C G63A A64G, the self-cleavage was 0.7. For A47G U49A C50U U80C, the self-cleavage was 0.43. Work on U48C A56C C71G yielded a self-cleavage of 0.12. U51C A56G G73U gave a self-cleavage of 0.75. For U51A U58A U60C U69A U74A U78C, the self-cleavage was 0.54. For U54C A56U U60A A64G U78C, the self-cleavage was 0.14. U54A U58G U76C showed a self-cleavage of 0.15. For A45U U60A U67C U76C, the self-cleavage was 0.1. U49A U51C G70U showed a self-cleavage of 0.57. For G46A U51A A57G, the self-cleavage was 0.48. For U49C U54A A56G A57G A64G U80C, the self-cleavage was 0.24. Work on A47G U49C U76C yielded a self-cleavage of 0.43. With U49A U51A U54G the self-cleavage was 0.16. With A45U U60C U72C the self-cleavage was 0.18. U51A A64U U72C U76C gave a self-cleavage of 0.54. In the case of G46A A64G U74A, the self-cleavage is reported as 0.15. In the case of U48C A65G A77U, the self-cleavage is reported as 0.32. Work on C50A U54C C71A yielded a self-cleavage of 0.18. For U54C A65U U72G, the self-cleavage was 0.5. In the case of U49C G55A A57G, the self-cleavage is reported as 0.15. With A47U A57G U74C the self-cleavage was 0.23. U48C U51C U72C C79A gave a self-cleavage of 0.4. U54A A57G A75U showed a self-cleavage of 1.13. For U51A U67C A75U, the self-cleavage was 0.45. U54C U58C U60A A65G U80C gave a self-cleavage of 0.16. In the case of A45U G52U A77U, the self-cleavage is reported as 0.75. In the case of A47G U51C G63A A77G, the self-cleavage is reported as 0.71. With G55A A56C A57G the self-cleavage was 0.41. Variant U54C A77G U80A has a self-cleavage of 1.17. For U51C A56G U58G U60C, the self-cleavage was 0.12. Work on A56G A57G U60A C71U yielded a self-cleavage of 0.29. G46U A47G U54C A57G U58C gave a self-cleavage of 0.17. Variant A47G A57G U58A has a self-cleavage of 0.25. With A47G U74C U80A the self-cleavage was 1.21. U51C U60C A64U G70A gave a self-cleavage of 0.4. U51C G61C U67C U72A gave a self-cleavage of 0.38. For A47G U51A G63U, the self-cleavage was 1.11. In the case of U48C A56C A64U, the self-cleavage is reported as 0.05. Work on G46U A56G U58C U78C yielded a self-cleavage of 0.13. U49A U78A C81U showed a self-cleavage of 1.03. A45U A64U C79U showed a self-cleavage of 0.15. In the case of U51A G52U U54A U60A, the self-cleavage is reported as 0.49. For G46C U54C A77G, the self-cleavage was 0.17. Variant U49A G55A U67C has a self-cleavage of 0.2. With A47G A56G A65G the self-cleavage was 0.14. In the case of U51C U60C A64G, the self-cleavage is reported as 0.15. Work on A45U U49C U72A U74C yielded a self-cleavage of 0.09. For U48C U60C A77G, the self-cleavage was 0.14. U51G U76C A77G showed a self-cleavage of 0.99. A45U U48C U58G gave a self-cleavage of 0.16. Variant A45U U48C U58C has a self-cleavage of 0.18. Work on U51A C59U A65G yielded a self-cleavage of 0.22. For A56G C68A U72C, the self-cleavage was 0.27. With A47U A57G A65U G73A the self-cleavage was 0.18. With U48C G52C A56G the self-cleavage was 0.48. Work on U48C U49C U51G A64U yielded a self-cleavage of 0.06. U51C U54C A64G U72C U78A U80G gave a self-cleavage of 0.59. Variant U48C U72C U78C has a self-cleavage of 0.88. Variant U51A U72A A77G has a self-cleavage of 0.93. For U51A U72A U76A, the self-cleavage was 0.79. Work on U54C U60C A77U yielded a self-cleavage of 0.38. With U49A U51C A57G U66A U76A the self-cleavage was 0.17. Variant U49C G63U U80C has a self-cleavage of 0.57. A45U A64U C68A showed a self-cleavage of 0.07.
